Reference: the supplement of paper PMC10126150
Values marked as one replicate rest on one cluster of the flow cell; about a third of the high ones do not repeat.

These sequences were tested on ATP (assay: switch fluorescence ratio, 500 uM ATP over buffer (Cy3 cluster intensity, sum of 5 cycles each) (fold (ratio)); higher = stronger signal-on switching upon ATP binding; sequences stand for … in TCGTCGGCAGCGTCAGATGTGTATAAGAGACAGTTTTTTTTTTTTTTTTTTTTTTTTT…TC). Details: aptamer strand: ATP DNA aptamer (quencher-CACCTGGGGGAGTATTGCGGAGGAAGG + anchor), 100 nM annealed; ATP concentration: 500 uM; one replicate.
Method in brief: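 Five buffer/ATP imaging cycles were run on Cy3-labelled switching-strand clusters on a modified Illumina MiSeq flow-cell, with NaOH stripping and re-annealing between cycles. In each cycle, clusters annealed to 100 nM quencher-labelled ATP aptamer were imaged in selection buffer, then after 15 min with 500 uM ATP at 22 °C. Per cluster, the fluorescence ratio is summed target-cycle over summed buffer-cycle Cy3 intensity, averaged per switch-domain sequence. Only clusters within 100-1000 RFU were kept.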
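Further: ATP exposure 15 min at 22 °C before imaging.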

Sequence | switch fluorescence ratio
TGGCAAAGGG | 0.955
TGGCAACCTG | 0.963
TGGCAACGGT | 1.03
TGGCACCATC | 1
TGGCACTGTT | 1
TGGCAGTCAA | 0.976
TGGCAGTCTG | 1.02
TGGCATATAC | 1.8
TGGCCAAACC | 1.05
TGGCCACCGC | 1.01
TGGCCAGGG | 1
TGGCCATTGC | 1.03
TGGCCCTGGT | 1.02
TGGCCGTTGG | 0.942
TGGCCTCCTA | 1
TGGCCTCGTA | 1.02
TGGCCTGGTT | 1.05
TGGCCTTAGT | 1.01
TGGCCTTTCG | 1.03
TGGCGAAGTC | 1.07
TGGCGATGTC | 0.968
TGGCGCAATT | 2.94
TGGCGGCCAG | 1.03
TGGCGTAAAG | 0.952
TGGCGTGATG | 0.952

Sequence | switch fluorescence ratio
TGGCTACCCA | 1.26
TGGCTATGTC | 1.01
TGGCTGACGA | 1.05
TGGCTGATAA | 1.01
TGGCTGGATG | 0.962
TGGCTTCGCT | 0.983
TGGGAAACCT | 2.29
TGGGAAATGC | 1.08
TGGGACGATT | 0.96
TGGGAGCCGG | 1.05
TGGGAGCGAA | 1.02
TGGGAGCTGG | 1.09
TGGGATCGGC | 0.993
TGGGATCTGT | 0.964
TGGGATGAGC | 1.04
TGGGCACGCT | 0.998
TGGGCATGGG | 1.01
TGGGCATTCC | 1.13
TGGGCCCCTC | 1.01
TGGGCGACA | 1
TGGGCGTCGT | 0.981
TGGGGAATCC | 1.04
TGGGGACTCG | 0.961
TGGGGAGCCA | 0.982
TGGGGATACA | 1.04

Sequence | switch fluorescence ratio
TGGGGCATAG | 0.965
TGGGGCATAT | 1.02
TGGGGCCGTT | 0.989
TGGGGCGCCC | 1.17
TGGGGCTTAC | 1.18
TGGGGGAGAA | 1.01
TGGGGTCCGA | 0.99
TGGGGTCCTG | 0.981
TGGGGTGAT | 0.982
TGGGTAAGTC | 1.02
TGGGTAGCTG | 0.97
TGGGTAGGAC | 0.973
TGGGTATTTC | 1.03
TGGGTCAGGC | 1.01
TGGGTCGGAT | 0.955
TGGGTCGGC | 1.03
TGGGTGAGTC | 0.974
TGGGTGGAAC | 1.01
TGGGTTTCAA | 0.953
TGGTAAAACG | 1.06
TGGTAATCAG | 1
TGGTACAACA | 1.01
TGGTACATGA | 0.992
TGGTACCGTA | 0.919
TGGTACGCC | 1.09

Sequence | switch fluorescence ratio
TGGTACTCCT | 1.09
TGGTAGCTCG | 0.938
TGGTAGGATC | 0.979
TGGTATGGAG | 1.04
TGGTATTTAC | 1.15
TGGTCAAAGG | 0.946
TGGTCAAATT | 1.01
TGGTCAACAT | 1.01
TGGTCCTCGT | 1.02
TGGTCGACCT | 1.01
TGGTCGCT | 1.02
TGGTCGGCCA | 1.03
TGGTCTTCAA | 0.996
TGGTGAACAT | 1.01
TGGTGAGTGT | 1.07
TGGTGATGAG | 1.02
TGGTGGTCCT | 1
TGGTGTACTG | 1.02
TGGTGTAGCT | 1.12
TGGTGTCTGG | 1
TGGTGTGATC | 1.06
TGGTTACGGA | 1.02
TGGTTCAATA | 1.03
TGGTTCCTTA | 1.01
TGGTTCGGTT | 0.987

Sequence | switch fluorescence ratio
TGGTTCTGTA | 0.996
TGGTTGGTCG | 1.01
TGGTTGTGCT | 1.07
TGGTTTACGT | 0.95
TGGTTTGCCA | 1.02
TGGTTTTATC | 1.01
TGTAAAACCT | 1.09
TGTAAAACGA | 0.972
TGTAAAAGGG | 1.27
TGTAAAGAGA | 0.978
TGTAAAGCGC | 1.22
TGTAAGAGGT | 0.973
TGTAAGTGAC | 1.13
TGTAAGTTCG | 1
TGTAATAGGC | 1.04
TGTAATGCTG | 0.918
TGTACAAGAG | 1.01
TGTACCATCG | 1.04
TGTACGAGCT | 1.03
TGTACTCTTT | 0.977
TGTACTGGAG | 1.04
TGTACTTGGA | 0.998
TGTACTTTAT | 1.02
TGTAGAGATG | 0.996
TGTAGGGCCC | 0.956

Sequence | switch fluorescence ratio
TGTAGGGGCG | 1.03
TGTAGGGTAC | 1.01
TGTAGTGGCT | 0.999
TGTAGTGGTG | 0.907
TGTAGTTTCG | 0.959
TGTATAATAC | 2.52
TGTATAGGCA | 1.03
TGTATATTGC | 0.964
TGTATCATGC | 1
TGTATTAAAA | 0.986
TGTATTTATT | 0.987
TGTATTTCAG | 0.988
TGTCAAATC | 1.21
TGTCAATTCA | 0.976
TGTCACATCG | 0.98
TGTCATCACG | 0.996
TGTCATGATG | 0.99
TGTCATTGCT | 0.925
TGTCCAAGGT | 1.01
TGTCCCCCA | 1.09
TGTCCTTCTG | 0.972
TGTCGAAAAT | 0.982
TGTCGAACGT | 0.987
TGTCGCAGTT | 0.999
TGTCGGAAT | 1.03

Sequence | switch fluorescence ratio
TGTCGGTTGG | 1
TGTCTAGTAA | 0.961
TGTCTCTCCG | 1.17
TGTCTGTAT | 1.03
TGTCTTATGG | 1.01
TGTGAAGTAC | 1.31
TGTGACTAGG | 0.999
TGTGACTCA | 1.03
TGTGAGGGCT | 1.12
TGTGAGTCCG | 1.03
TGTGATACGC | 1.12
TGTGATGAAG | 0.937
TGTGATGTAT | 1
TGTGCACGAA | 1.04
TGTGCAGAGA | 1.03
TGTGCCAGCC | 1.12
TGTGCCATTT | 0.968
TGTGCGCACC | 1.01
TGTGCTCAC | 1.01
TGTGCTTATC | 1.02
TGTGGAATTG | 0.955
TGTGGAGAAT | 1.03
TGTGGATATA | 1.01
TGTGGCCTGG | 0.959
TGTGGGAGTC | 0.997

Sequence | switch fluorescence ratio
TGTGGTGACG | 0.991
TGTGGTTATC | 1
TGTGGTTCAC | 1.01
TGTGTATTAG | 0.996
TGTGTCCAGA | 0.988
TGTGTCGGC | 1.03
TGTGTGCCTG | 1.02
TGTGTTAGGA | 0.987
TGTGTTATG | 0.972
TGTGTTGGC | 1
TGTTAAACTG | 1.02
TGTTAACGGA | 1.04
TGTTAATG | 0.991
TGTTACATGG | 0.897
TGTTACCAAT | 0.97
TGTTACTTGC | 1.02
TGTTAGACGA | 1.01
TGTTAGCACA | 1.02
TGTTAGTTGC | 0.952
TGTTAGTTGT | 0.999
TGTTATCCGG | 1.03
TGTTCAAAAG | 1.05
TGTTGAGTGG | 1
TGTTGCTGG | 1.02
TGTTGTACTG | 1.1
